Results reported in patent US20210355220A1 (TIKCRO TECHNOLOGIES, published 2021).

How the values were obtained:
[1] = biological target: T1, recombinant human CD80-mFC (human; mouse, UniProt P33681 35-242); experiment: flow cytometry on HEK293-hCTLA-4 cells incubated with 1 ug/ml antibody, CD80 in serial dilution, bound antibody detected with anti-human secondary; competitor: Ab55h
T1 construct: extracellular domain; also called B7.1; not shown: mouse IgG2b Fc segment
T1 sequence (looked up): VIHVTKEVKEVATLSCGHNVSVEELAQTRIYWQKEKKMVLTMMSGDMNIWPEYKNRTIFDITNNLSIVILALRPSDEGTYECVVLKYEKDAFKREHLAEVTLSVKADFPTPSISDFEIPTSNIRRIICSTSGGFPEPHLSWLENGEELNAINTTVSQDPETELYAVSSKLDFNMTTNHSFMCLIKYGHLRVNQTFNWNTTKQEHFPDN

[2] = biological target: T2, recombinant human CD86-mFC (human; mouse, UniProt P42081 24-247); experiment: flow cytometry on HEK293-hCTLA-4 cells incubated with 1 ug/ml antibody, CD86 in serial dilution, bound antibody detected with anti-human secondary; competitor: Ab55h
T2 construct: extracellular domain; also called B7.2; not shown: mouse IgG2b Fc segment
T2 sequence (looked up): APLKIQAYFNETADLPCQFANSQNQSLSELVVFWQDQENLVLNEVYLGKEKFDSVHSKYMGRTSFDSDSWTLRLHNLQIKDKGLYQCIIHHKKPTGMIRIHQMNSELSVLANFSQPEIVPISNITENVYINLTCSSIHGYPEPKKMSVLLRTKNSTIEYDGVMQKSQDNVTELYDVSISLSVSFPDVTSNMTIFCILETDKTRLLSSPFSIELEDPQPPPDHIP

- binding result [1]: binds
- binding result [2]: binds
B1: human CTLA-4 expressed on cells (receptor)
chain: not shown
notes: whole, on cells; On stably or transiently transfected HEK293 cells; also called hCTLA-4; HEK293-hCTLA-4 cells
